Activity change, negative = inhibition data for 35 compounds are collected here from PubChem BioAssay AID1794842 (National Center for Advancing Translational Sciences (NCATS), 2023).

In all, about 2,800 compounds went through this assay and fewer than 10 were called active. The call rests on the fitted dose curve; in most records, active means well fitted curve in the direction sought with a large enough effect; inconclusive means small, poorly fitted or top-dose-only effect, or another doubt; inactive means no such curve, though single readings can be large or run the other way. The list shows a part of the results.

This assay deals with Metallo-beta-lactamase type 2 (Klebsiella pneumoniae) (UniProt C7C422). Nature of the assay: qHTS to identify inhibitors of the New Delhi Metallo-beta-lactamase (NDM): Meropenem screen against the machine-based learning selections. Further: % of control where 0% means no effect. The note with it: Purified NDM-1, meropenem hydrolysis, absorbance 300 nm; at 57.5 µM (top of the series) unless noted. An excerpt: Assay Submitter (PI): James Inglese Ph.D., Patricia Dranchak Ph.D., Mahesh Aitha Ph.D. Assay Development and Screening Technology Laboratory (ADST) National Center for Advancing Translational Sciences (NCATS), Rockville, MD National Institute of Health (NIH), Bethesda, Maryland The metallo-beta-lactamases (MBL) are a main antibiotic resistance mechanism evolved by bacteria. There is an urgent clinical need for MBL inhibitors to mitigate this growing threat. To support a machine-based learning study, qHTS has been used to experimentally test inhibitors identified by prediction tools.
Sequence of UniProt C7C422 (C7C422 whole entry, looked up): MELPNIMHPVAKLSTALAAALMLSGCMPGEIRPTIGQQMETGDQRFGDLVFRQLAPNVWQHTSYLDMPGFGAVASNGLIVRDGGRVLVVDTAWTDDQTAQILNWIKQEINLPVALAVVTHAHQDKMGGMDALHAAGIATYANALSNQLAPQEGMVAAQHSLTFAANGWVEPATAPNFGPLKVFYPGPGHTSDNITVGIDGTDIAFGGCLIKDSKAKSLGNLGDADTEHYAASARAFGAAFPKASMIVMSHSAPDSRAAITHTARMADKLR
PROTOCOL TABLE (as described by Inglese et al., 2007) SEQUENCE No. (e.g., 1, 2, 3, etc.); […] (e.g., enzyme, Incubation, Reagent, etc.); VALUE; DESCRIPTION Primary Screen 1; NDM-1; 4 uL of 3 nM enzyme [2 nM final] in 50 mM HEPES (pH 7.0), 1 uM […], 0.01% Tween20; Use BioRaptr to dispense into two sets of Aurora black, clear bottom high base 1536-well plates 2; Compounds; 23 nL; Use Pin Tool (Wako) to transfer DMSO control and library compounds in DMSO 3; Incubate; >30 min 4a; Reagent; 2 uL of 50 uM nitrocefin [16.7 uM final] to one set of assay plates 4b; Reagent; 2 uL of 150 uM meropenem [50 uM final] to second set of assay plates 5a; Incubate; 15 min 5b; Incubate; 30 min 6a; Detector; Absorbance at 485 nm (bandwidth = 5 nm, 25 flashes/well) on Tecan Infinity 6b; Detector; Absorbance at 300 nm (bandwidth = 5 nm, 25 flashes/well) on Tecan Infinity NOTES (numbers refer to sequence above) 1; Column 1 of each plate received assay buffer without enzyme and columns 2-48 received enzyme for a final assay concentration of 2 nM. 2; Control plate contained DMSO in columns 1, 2, 3, and 4. 3; Compound interaction with enzyme. 4; Nitrocefin and meropenem substrates were prepared in the same assay buffer as step 1 for a final assay concentration of 16.7 uM and 50 uM, respectively, and added to all wells across respective sets of assay plates. 5; Default reader settings were applied for absorbance read at 485 nm (nitrocefin) or 300 nm (meropenem), bandwidth = 5 nm, 25 flashes/well. References: Inglese J, Shamu CE, Guy RK. 2007. Reporting data from high-throughput screening of small-molecule libraries. Nat Chem Biol. doi:10.1038/nchembio0807-438 Yasgar A, Shinn P, Jadhav A, Auld D, Michael S, Zheng W, Austin CP, Inglese J, Simeonov A. 2008. Compound Management for Quantitative High-Throughput Screening. J Lab Autom 13:79 - 89. doi:10.1016/j.jala.2007.12.004
For orientation: qHTS replaces the single test concentration by a dilution series.
For the compound `CC(=O)NCCNC(=O)[C@H]1CN2CCC1C[C@@H]2Cn1cc(CSc2ccccc2)nn1` (stereo not given in full), the activity change, negative = inhibition was inactive: 2.79% [at 38.4 µM]. For `Cn1nc(C(=O)N[C@@H]2COCC[C@@H]2OCc2cscn2)c2ccccc21`, the activity change, negative = inhibition is inactive: 9.98% [at 38.4 µM].

As for `Cc1ccc2c(n1)N(C)[C@H](CO)CCN(C1CCCC1)C2`, the activity change, negative = inhibition is inactive: 2.61% [at 76.7 µM]. With `CCCc1cnc(C)nc1N1CCC2(CC1)CNC(C(=O)O)C2` (stereo not given), the activity change, negative = inhibition is inactive: 50.2% [at 38.4 µM]. Turning to `CC(=O)c1ccc(NC(=O)OC[C@H]2C[C@@H]3CCN2C[C@@H]3c2cc(-c3cccs3)nn2C)cc1`, the activity change, negative = inhibition was inactive: 1.41% [at 38.4 µM]. As for `C#CCN(C)C[C@H]1CN2CC[C@H]1C[C@@H]2CNC(=O)NC(C)C`, the activity change, negative = inhibition was inactive: -0.384%. Regarding `Cc1ccc(S(=O)(=O)NC[C@H]2C[C@@H]3CCN2C[C@@H]3CN2CCN(c3ncccn3)CC2)cc1`, the activity change, negative = inhibition was inactive: -2.68% [at 38.4 µM].

As for `Cc1nc(C2CCCC2)cc([C@H]2CN3CC[C@H]2C[C@@H]3CNC(=O)CCCC(=O)O)n1`, the activity change, negative = inhibition was inactive: 1.55%. For the compound `COc1ccc(-c2ccc(=O)n3c2[C@@H]2C[C@@H](CN(C(=O)C(C)(C)C)C2)C3)cc1`, the activity change, negative = inhibition is inactive: 4.23%. Turning to `O=C(O)CSCC(=O)N1C[C@@H]2C[C@H](C1)c1c(-c3ccccc3F)ccc(=O)n1C2`, the activity change, negative = inhibition is inactive: 5.31%.

Consider `COc1ccc(-c2cc([C@H]3CN4CC[C@H]3C[C@@H]4CNC(=O)C(C)(C)C)nc(C)n2)cc1OC`, for which the activity change, negative = inhibition was inactive: 0.174% [at 38.4 µM]. With `COc1ccc(CN(Cc2ccc(OC)cc2)C[C@H]2C[C@@H]3CCN2C[C@@H]3c2cc(C3CCCC3)nn2C)cc1`, the activity change, negative = inhibition was inactive: 26.3% [at 38.4 µM]. Take `CC(C)(C)c1ccc(-c2cn(C[C@H]3CC4CCN3C[C@@H]4C(=O)NCc3ccccc3)nn2)cc1` (stereo not given in full): the activity change, negative = inhibition is inactive: -2.36% [at 38.4 µM]. For `CN(C)C(=O)[C@H]1CN2CCC1C[C@@H]2Cn1cc(CSc2ccccc2)nn1` (stereo not given in full), the activity change, negative = inhibition is inactive: 1.37%.

In the case of `C#C[C@H]1CN2CC[C@H]1C[C@@H]2CNS(=O)(=O)c1ccc(Cl)cc1`, the activity change, negative = inhibition was inactive: 0.0244%. As for `CC[C@H]1CN2CC[C@H]1C[C@@H]2CNCc1ccc(OC)cc1`, the activity change, negative = inhibition was inactive: -1.9% [at 76.7 µM]. Regarding `Cc1nc(-c2ccco2)cc([C@H]2CN3CC[C@H]2C[C@@H]3CNC(=O)Nc2ccccc2)n1`, the activity change, negative = inhibition was inactive: 2.21%. As to `CSCC(=O)N1C[C@@H]2C[C@H](C1)c1ccc(-c3ccccc3CN(C)C)c(=O)n1C2`, the activity change, negative = inhibition was inactive: 9.05%. With `COc1ccc(C(=O)N2[C@H]3CC[C@@H]2c2cnc(C)nc2C3)c(OC)c1`, the activity change, negative = inhibition was inactive: -0.0381% [at 38.4 µM]. The result for `CNCc1cn(C[C@H]2CC3CCN2C[C@@H]3C(=O)NCc2ccccc2)nn1` (stereo not given in full) reads inactive: -1.52%; that for `O=C(C1CCCCC1)N1C[C@@H]2C[C@H](C1)c1c(-c3ccc(Cl)cc3)ccc(=O)n1C2`, inactive: 3.01%.

`CC(=O)Nc1ccc(S(=O)(=O)NC[C@H]2C[C@@H]3CCN2C[C@@H]3c2cc(-c3ccccc3)nn2C)cc1`: the activity change, negative = inhibition was inactive: -0.35% [at 38.4 µM].

In the case of `COCC1CN(C)CC12CCN(Cc1cccc(OC)n1)CC2` (stereo not given), the activity change, negative = inhibition was inactive: 0.219% [at 38.4 µM].

As for `CN(C)C(=O)[C@H]1CN2CCC1C[C@@H]2Cn1cc(-c2cccc(N)c2)nn1` (stereo not given in full), the activity change, negative = inhibition was inactive: -4.68%. Turning to `CC(=O)Nc1ccc(S(=O)(=O)NC[C@H]2C[C@@H]3CCN2C[C@@H]3c2cc(-c3ccco3)nc(C)n2)cc1`, the activity change, negative = inhibition was inactive: 9.45% [at 38.4 µM]. As for `COc1ccccc1CNC(=O)[C@H]1CN2CC[C@H]1C[C@@H]2Cn1cc(-c2ccccn2)nn1`, the activity change, negative = inhibition was inactive: 0.922%. In the case of `CC1CCN(C[C@H]2CN3CC[C@H]2C[C@@H]3CNC(=O)Nc2ccccc2)CC1`, the activity change, negative = inhibition was inactive: 0.427%. In the case of `CC[C@H]1CN2CC[C@H]1C[C@@H]2CNCc1ccc2c(c1)OCO2`, the activity change, negative = inhibition is inactive: -2.34%. `CC[C@H]1CN2CC[C@H]1C[C@@H]2CNC(=O)c1ccc(N(C)C)cc1`: the activity change, negative = inhibition was inactive: 13.9%. On to `COc1ccc(C(=O)N2C[C@@H]3C[C@H](C2)c2c(NC(=O)c4ccco4)ccc(=O)n2C3)cc1`, for which the activity change, negative = inhibition was inactive: 2.15%. Consider `CC(=O)Nc1ccc(-c2ccc(=O)n3c2[C@@H]2C[C@@H](CN(C(=O)C4CCCCC4)C2)C3)cc1`, for which the activity change, negative = inhibition is inactive: -0.744%. In the case of `CC(=O)Nc1ccc(S(=O)(=O)NC[C@H]2C[C@@H]3CCN2C[C@@H]3c2cc(-c3ccccc3Br)nc(C)n2)cc1`, the activity change, negative = inhibition was inactive: 0.512% [at 38.4 µM]. As for `N#Cc1ccc(C(=O)N2C[C@@H]3C[C@H](C2)c2c(-c4ccccc4F)ccc(=O)n2C3)cc1`, the activity change, negative = inhibition is inactive: -1.77%. In the case of `COc1ccc(CN2C[C@@H]3C[C@H]2C(=O)Nc2ccccc2O3)cn1`, the activity change, negative = inhibition was inactive: -1.05%. The result for `O=C1N(Cc2cccnc2)C[C@H]2CN(C3CCC3)CCN12` reads inactive: 0.55% [at 76.7 µM].
